Laboratory results taken from a collection of fitness landscapes (doi:10.1016/j.celrep.2020.107928).
The full ranking holds about 81,000 sequences; the median of “one-hybrid fitness for binding parS DNA” is about -0.17, and the highest 2% start at about 0.51. The list shows a part of the results.

B1: Caulobacter ParB omega fusion; a variant is named by its letters at X, in order, B8GW30 (parent)
chain: MESVVVGEPGMSEGRRGLGRGLSALLGEVDAAPAQAPGEQLGGSREAPIEILQRNPDQPRRTFREEDLEDLSNSIREKGVLQPILVRPSPDTAGEYQIVAGERAWRAAQRAGLKTVPIMVRELDDLAVLEIGIIENVQRADLNVLEEALSYKVLMEKFERTQENIAQTIGKSXSHVANXMRLLXLPDEVQSYLVSGELTAXHARAIAAAADPVALAKQIIEGGLSVRETEALARKAPNLSAGKSKGGRPPRVKDTDTQALESDLSSVLGLDVSIDHRGSTGTLTITYATLEQLDDLCNRLTRGI

Variants of: B1
Experiment: one-hybrid fitness for binding parS DNA (scaled: cognate 1, non-cognate 0); higher = stronger binding
Settings: with parS DNA site
Summary of the method: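 Selection: bacterial one-hybrid in E. coli USO, HIS3 reporter with the site 19 bp from the promoter, 48 hours at 37°C on M9-minus-histidine plus 0.1 mM IPTG and 5 mM 3-AT. Libraries were Caulobacter ParB with four randomised specificity codons, sequenced on Illumina before and after selection. Fitness is the rescaled log change in variant-to-wild-type read ratio, anchored to the cognate and non-cognate sites.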

Variant | one-hybrid fitness for binding parS DNA
KMIT | ≤ 0.2
RHDV | ≤ 0.2
NNQG | ≤ 0.2
DGWM | ≤ 0.2
FFTN | ≤ 0.2
SNLV | ≤ 0.2
ITPS | ≤ 0.2
ISTQ | ≤ 0.2
QHPR | ≤ 0.2
SSVL | ≤ 0.2
SSMS | ≤ 0.2
RFPC | 0.424
DQAI | ≤ 0.2
NIQT | ≤ 0.2
QGSS | ≤ 0.2
RKFD | ≤ 0.2
RIIK | ≤ 0.2
EVQI | ≤ 0.2
GPYS | ≤ 0.2
KAGW | ≤ 0.2
CMYM | ≤ 0.2

Variant | one-hybrid fitness for binding parS DNA
VEWS | ≤ 0.2
FVLF | ≤ 0.2
TRLT | ≤ 0.2
WHQG | ≤ 0.2
DHPT | ≤ 0.2
QCCR | ≤ 0.2
QQAH | ≤ 0.2
RWCW | ≤ 0.2
IKSE | ≤ 0.2
IKPI | ≤ 0.2
RHMM | 0.293
PHPP | ≤ 0.2
VDMI | ≤ 0.2
SVVY | ≤ 0.2
LRFG | ≤ 0.2
MQDN | ≤ 0.2
TRHL | ≤ 0.2
MSPD | ≤ 0.2
PRIY | ≤ 0.2
GEHT | ≤ 0.2
RLGR | ≤ 0.2

Variant | one-hybrid fitness for binding parS DNA
FSNF | ≤ 0.2
YTGT | ≤ 0.2
YKDM | ≤ 0.2
SAQM | ≤ 0.2
GSYH | ≤ 0.2
HPLE | ≤ 0.2
HSHT | ≤ 0.2
QSIT | ≤ 0.2
TTME | ≤ 0.2
EYPS | ≤ 0.2
MPYC | ≤ 0.2
GKLT | ≤ 0.2
TAIH | ≤ 0.2
RIQP | ≤ 0.2
CNQL | ≤ 0.2
PARY | ≤ 0.2
VQLK | ≤ 0.2
ACQA | ≤ 0.2
QIAC | ≤ 0.2
WCVN | ≤ 0.2
ASYD | ≤ 0.2

Variant | one-hybrid fitness for binding parS DNA
CTIC | ≤ 0.2
STEG | ≤ 0.2
FGHT | ≤ 0.2
MVTT | ≤ 0.2
PHGL | ≤ 0.2
DVMF | ≤ 0.2
MTKG | ≤ 0.2
YLLF | ≤ 0.2
QSHF | ≤ 0.2
NGAS | ≤ 0.2
QHQH | ≤ 0.2
SESC | ≤ 0.2
SKKC | ≤ 0.2
HAKW | ≤ 0.2
FKPS | ≤ 0.2
YMTC | ≤ 0.2
CKAS | ≤ 0.2
CQES | ≤ 0.2
PYSE | ≤ 0.2
LCTW | ≤ 0.2
IHLL | ≤ 0.2
